Hit rate of the full screen: of about 43,000 compounds, about 200 (0.47%) were called active. Roughly 12% stayed inconclusive and do not appear here. The call rests on the fitted dose curve; in most records, active means well fitted cell-killing curve with a large enough effect; inconclusive means small, poorly fitted or top-dose-only effect, or effect the other way; inactive means flat fitted curve, though single readings scatter. This is one part of the list.

Results on 48 compounds are retold here after PubChem BioAssay AID1508642 (National Center for Advancing Translational Sciences (NCATS), 2021).
On the % scale 0 is the no-effect control and ±100 the full control effect; potency means the concentration at half of the fitted maximal effect.

A short description of this assay: Cell viability qHTS assay in S16 Pmp22-F2sN cells. Further: nearly all actives have a fitted effect of over 65% in size. The settings on record: S16 Pmp22-F2sN Schwann cells viability, CellTiter-Glo, 24 h; series mostly up to 57.5 µM; activity change, negative = cytotoxicity: at the top concentration. The essentials:
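S16 Pmp22-F2sN Schwann cells (500-1,000/well) in phenol-red-free DMEM with 10% FBS received 23 nL compound by pin tool for 24 h at 37 °C. Viability was then read as CellTiter-Glo luminescence after 15 min at room temperature.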
For `CCCCOC(=O)c1ccc(Nc2ncnc3[nH]ncc23)cc1`, the “activity change, negative = cytotoxicity” value was inactive: 1.67%.
Regarding `Cc1ccccc1-c1ncnn1-c1sc2c(c1C#N)CCCCC2`, the “activity change, negative = cytotoxicity” value is inactive: -12.9%.
The same measure, in the same setting: next, `COc1ccc(-c2cc(C(=O)OCC(=O)c3ccc(C)cc3)c3cccc(Cl)c3n2)cc1`: inactive: -1.65%.
On to `CC(C)Cn1c(=O)c2ccccc2n2c(CCC(=O)NCc3ccccc3Cl)nnc12`, for which the “activity change, negative = cytotoxicity” value was inactive: 0.954%.
Same read-out and setting: next, `CCOc1ccccc1NC(=O)C(Cc1ccccc1)NS(=O)(=O)c1ccc2c(c1)oc(=O)n2C` (stereo not drawn): inactive: 7.05%; `O=C(CN1C=NS(=O)(=O)c2ccccc21)Nc1ccc(F)cc1`: inactive: 8.2%; `O=C(NCc1cccs1)c1ccc2c(c1)N(Cc1ccccc1Cl)C(=O)c1ccccc1S2`: inactive: 17.2%.
Regarding `COc1ccc(-c2cc3nc(C)c(CCC(=O)N4CCN(c5cccc(Cl)c5)CC4)c(C)n3n2)c(OC)c1`, the “activity change, negative = cytotoxicity” value was inactive: 2.42%.
As to `CC(=O)NCCNC(=O)CCCc1nnc2n(C)c(=O)c3sccc3n12`, the “activity change, negative = cytotoxicity” value is inactive: -2.04%.
On the same count and under the same terms, next, `COc1ccc(CNC(=O)c2cc3cc(C)ccc3n2C)cc1`: inactive: -3.14%; `CCOc1ccc(CCNC(=O)CN2C(=O)COc3ccc(S(=O)(=O)N4CCC(C)CC4)cc32)cc1`: inactive: 2.36%; `Cc1ccc(NC(=O)CCn2cccn2)cc1Cl`: inactive: 0.784%.
As for `O=S(=O)(c1ccccc1)c1nnn2c1nc(NCc1cccs1)c1sccc12`, the “activity change, negative = cytotoxicity” value is inactive: 2.41%.
Turning to `Cc1ccc2oc(C(=O)Nc3c(C(=O)Nc4ccccc4)oc4ccccc34)cc(=O)c2c1`, the “activity change, negative = cytotoxicity” value is inactive: -3.09%.
Consider `CCCOc1ccc(N2CC(C(=O)Nc3cccc(Cl)c3Cl)CC2=O)cc1` (stereo not drawn), for which the “activity change, negative = cytotoxicity” value was inactive: 1.58%.
Take `CCCCN(C)c1nnc(NC(=O)Nc2cccc(C(C)=O)c2)s1`: the “activity change, negative = cytotoxicity” value is inactive: -7.56%.
As to `COC(=O)c1c(NC(=O)c2cc3nc(-c4ccc(OC)cc4)cc(C(F)(F)F)n3n2)sc2c1CCCC2`, the “activity change, negative = cytotoxicity” value was inactive: 6.91%.
As for `Cc1ccc(NC2=CC(c3ccccc3F)N(c3ccc(C)cc3)C2=O)cc1` (stereo not drawn), the “activity change, negative = cytotoxicity” value is inactive: -9.7%.
Regarding `COc1ccc(NC(=O)Cn2c(=O)n(-c3ccccc3)c(=O)c3c4c(sc32)CCCC4)cc1`, the “activity change, negative = cytotoxicity” value is inactive: 0.88%.
Still for that read-out and setting: the value for `O=C(Cc1ccccc1)Nc1sc2c(c1C(=O)Nc1ccccc1Cl)CCC2` was inactive: 0.831%; that for `COc1ccc(-c2cc(NCc3ccc(F)cc3)n3cnnc3n2)cc1` was inactive: -2.07%.
Consider `Cc1ccc(NC(=O)CCc2nnc3n(CC(C)C)c(=O)c4ccccc4n23)cc1C`, for which the “activity change, negative = cytotoxicity” value is inactive: 8.13%.
Regarding `CCCN1C(=O)C(Cc2nc3ccccc3c(=O)n2CC)c2ccccc21` (stereo not drawn), the “activity change, negative = cytotoxicity” value is inactive: -4.22%.
Still for that read-out and setting: next, `CCCc1cc(N2CCN(c3cc(Cl)ccc3C)CC2)n2cnnc2n1`: inactive: -25.7%; `COc1ccc(CNC(=O)Cn2nc(C)c3nn(-c4ccc(Cl)cc4)c(C)c3c2=O)cc1`: inactive: 8.78%.
Same read-out and setting: the value for `O=C(COc1ccccc1)NCCc1csc(-c2ccc(Cl)cc2)n1` was inactive: 8.46%; that for `COc1cccc(Cn2c(CNS(=O)(=O)c3ccc(F)c(Cl)c3)nc3cccnc32)c1` was inactive: -7.3%.
On to `CCc1nn2c(=O)cc(COc3ccc(/C=C(\C#N)C(=O)Nc4ccc(F)cc4)cc3OC)nc2s1`, for which the “activity change, negative = cytotoxicity” value is inactive: 3.6%.
On to `CC(C)COc1ccc(C(=O)Nc2cc3nn(-c4ccccc4)nc3cc2Cl)cc1`, for which the “activity change, negative = cytotoxicity” value was inactive: 10.6%.
Turning to `CCOC(=O)c1[nH]c2c(c1Cc1ccccc1C)C(=O)CC(c1cc(OC)ccc1OC)C2` (stereo not drawn), the “activity change, negative = cytotoxicity” value was inactive: 2.36%.
On to `CN1C(=O)Cc2cc(S(=O)(=O)N3CCN(c4ccc(Cl)cc4)CC3)ccc21`, for which the “activity change, negative = cytotoxicity” value is inactive: 12.9%.
Turning to `CCn1c2ccccc2c2nnc(SCC(=O)Nc3ccccc3OC)nc21`, the “activity change, negative = cytotoxicity” value was inactive: 2.5%.
In the case of `CCOc1ccccc1CNC(=O)c1cc(-c2ccc(Cl)s2)nc2ccccc12`, the “activity change, negative = cytotoxicity” value was inactive: -2.09%.
As to `CCOC(=O)c1ccc(NC(=O)C2CCN(S(=O)(=O)c3ccc4c(c3)CCCC(=O)N4)CC2)cc1`, the “activity change, negative = cytotoxicity” value is inactive: 16.7%.
Take `Cc1ccccc1-c1nn2c(=O)cc(CN3CCN(C(=O)/C=C/c4ccccc4)CC3)nc2s1`: the “activity change, negative = cytotoxicity” value was inactive: -2.84%.
Same read-out and setting: next, `CCc1ccc(NC(=O)Cn2c(=O)n(CCC(=O)N3CCc4ccccc4C3)c(=O)c3ccccc32)cc1`: inactive: 6.74%.
Consider `O=S(=O)(NCC(c1cccs1)S(=O)(=O)c1ccccc1)c1ccc(F)cc1` (stereo not drawn), for which the Potency was active: 20 µM.
In the case of `CCOc1ccc(NC(=O)c2c(NCc3cccnc3)sc3c2CCCC3)cc1`, the “activity change, negative = cytotoxicity” value is inactive: 5.61%.
Consider `CCOC(=O)c1ccc(CN(Cc2ccc(F)cc2)S(=O)(=O)c2ccc(F)c(C(=O)Nc3ccc(Cl)cc3F)c2)cc1`, for which the “activity change, negative = cytotoxicity” value was inactive: 1.22%.
As to `COc1cccc(N2CCN(C(=O)c3cccc(-n4c(C)nc5cccnc54)c3)CC2)c1`, the “activity change, negative = cytotoxicity” value is inactive: -16.6%.
Take `O=S(=O)(Nc1ccc(Br)cc1F)c1ccc2nc(-c3ccccc3)[nH]c2c1`: the “activity change, negative = cytotoxicity” value was inactive: -14.8%.
Regarding `CC1CCc2c(sc3nc(-c4cc5cc(Br)ccc5oc4=O)[nH]c(=O)c23)C1` (stereo not drawn), the “activity change, negative = cytotoxicity” value is inactive: -3.55%.
With `O=C(CCS(=O)(=O)c1cccc2nonc12)Nc1c(F)cccc1F`, the “activity change, negative = cytotoxicity” value was inactive: -0.83%.
The same measure, in the same setting: next, `C=Cc1ccc(Cn2c(C(=O)O)c(CNC3CCCCC3)c3ccc(C)cc32)cc1`: inactive: 1.52%; `Cc1cc(C)c(NC(=O)Cn2cc(S(=O)(=O)Cc3ccccc3F)c3ccccc32)c(C)c1`: inactive: 0.474%; `COC(=O)c1c(NC(=O)c2cc3ccccc3c(=O)o2)sc2c1CCCC2`: inactive: 1.5%.
With `Cc1cccc(C)c1OCC(=O)Nc1ncn[nH]1`, the “activity change, negative = cytotoxicity” value is inactive: 3.17%.
As to `CCN(CC)CCNC(=O)c1c(C)oc2ncnc(N3CCOCC3)c12`, the “activity change, negative = cytotoxicity” value is inactive: -2.33%.
